Reference: PubChem BioAssay AID1345082 (National Center for Advancing Translational Sciences (NCATS), 2018)
The whole screen tested about 94,000 compounds, of which about 4,000 (4.3%) were called active. This list was built around the results that the source calls inconclusive (neither active nor inactive); the mix of calls is not that of the screen. Calls come from the whole dose curve; as a rule, active = well fitted inhibition curve with a large enough effect; inconclusive = small, poorly fitted or top-dose-only effect; inactive = no such curve, though single readings can be large or run the other way. Where the call is inconclusive, the potency comes from a doubtful curve fit.

test: Cytotoxic Profiling in NIH 3T3 Cell Line of Diverse Libraries Using Quantitative High-Throughput Screening; conditions: NIH 3T3 viability, CellTiter-Glo ATP luminescence, 48-72 h; activity change, negative = cytotoxicity: at 96.7 µM (top of the series) unless noted; series mostly up to 96.7 µM; note: nearly all actives have a fitted effect of over 55% in size
In short: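 Cytotoxicity was measured by CellTiter-Glo ATP luminescence after 48 or 72 h compound exposure at 37 °C. Mouse NIH 3T3 fibroblasts were seeded at 400 cells/well and dosed by 23 nL pin transfer.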
% is set by controls: 0 for no effect and ±100 for the full control effect; potency is the fitted concentration of half-maximal effect; tags give direction and shape of the fitted curve.

| Structure (SMILES) | activity change, negative = cytotoxicity | Potency | outcome |
| --- | --- | --- | --- |
| Cc1ccccc1C(=O)N1CCCC(C(=O)N2CCCC(c3nc4ncccc4[nH]3)C2)C1 (stereo not drawn) | inactive: -6.97% | – | – |
| C=CCN(Cc1cnc(-c2cccc(C)c2)nc1)Cc1ccccn1 | – | inconclusive: 79.4 µM [inhibitor, single point] | – |
| CCCCN(Cc1cccnc1)C(=O)c1cnc(-c2ccc(C)cc2)[nH]c1=O | – | inconclusive: 89.1 µM [inhibitor, single point] | – |
| CCCCn1c(=O)c(C(=O)N2CCN(C(=O)c3ccccc3Cl)CC2)nc2cccnc21 | inactive: -37.2% | – | – |
| O=C(NC1CCCC1)C1CCN(c2nccc(Nc3ccccc3F)n2)CC1 | – | inconclusive: 31.6 µM [inhibitor, partial curve] | – |
| CC(C)N1CCN(C2CCOC3(CCN(C(=O)C4CC4)CC3)C2)CC1 (stereo not drawn) | inactive: 4.84% | – | – |
| CC(c1ccon1)N(C)C(=O)c1cc(CN2CCC(Cc3ccccc3)CC2)on1 (stereo not drawn) | – | inconclusive: 50.1 µM [inhibitor, partial curve, poor fit] | – |
| Cc1[nH]cnc1-c1nccn1CCCOC1CCN(C)CC1 | inactive: 0.383% | – | – |
| CC(C)N1C[C@H](O)C[C@H]1c1nnc2n1CCN(C(=O)CCc1ccccc1)CC2 | inactive: -11.1% | – | – |
| Cc1nc([C@H]2CCN(Cc3ccc(C)c(C)c3)C[C@H]2NC(=O)C2CCOCC2)n[nH]1 | – | inconclusive: 44.7 µM [inhibitor, partial curve, poor fit] | – |
| O=C(c1ccc2c(c1)OCO2)N1CCC2(CC1)N=C(c1ccc(Br)cc1)NO2 | – | inconclusive: 44.7 µM [inhibitor, partial curve, poor fit] | – |
| COCCCNc1cc(-c2ccsc2)nc2c(C)noc12 | – | inconclusive: 50.1 µM [inhibitor, partial curve, poor fit] | – |
| CCc1ccccc1NC(=O)Cn1cccc1-c1nc(-c2ccccc2)no1 | – | inconclusive: 25.1 µM [inhibitor, full curve] | – |
| COc1cncc(Nc2cnc3ccc(-c4ccc(F)cc4)nn23)c1 | – | active: 79.4 µM | – |
| Cc1cc(CNC(=O)C(C)Cn2nc(C)nc2C)c2[nH]c(-c3ccccc3)c(C)c2c1 (stereo not drawn) | – | inconclusive: 12.6 µM [inhibitor, partial curve, poor fit] | – |
| O=C(N[C@@H]1CN(c2ccncn2)C[C@H]1CO)c1cccc(Cl)c1 | inactive: -13.7% | – | – |
| O=C(C[C@@H]1CCNC[C@@H]1Cc1cc(-c2ccc(F)cc2)on1)N1CCC(Cc2ccccc2)CC1 | – | active: 20 µM | – |
| CN1CC2(CCN(Cc3ccc(-c4ccc(Cl)cc4)o3)C2)OC1=O (stereo not drawn) | – | inconclusive: 50.1 µM [inhibitor, partial curve, poor fit] | – |
| Cc1cc2nc3n(c(=O)c2n1CC(=O)Nc1ccc(Cl)cc1F)CCCC3 | – | inconclusive: 44.7 µM [inhibitor, partial curve, poor fit] | – |
| COc1ccc(OCC2CN(Cc3ccccc3)C(=O)c3ccc(C)nc3O2)cc1 (stereo not drawn) | – | inconclusive: 28.2 µM [inhibitor, partial curve, poor fit] | – |
| CC(=O)N1CCC(N2C[C@@H]3OCC(=O)N(Cc4ccccn4)[C@@H]3C2)CC1 | inactive: 0.766% [at 174 µM] | – | – |
| O=C(Cn1cccc1-c1nc(-c2ccc3c(c2)OCO3)no1)N1CCc2ccccc21 | inactive: -3.39% | – | – |
| COc1cccc(CCc2ccccc2C(=O)N2CC[C@H](CO)[C@@H](O)C2)c1 | – | – | inactive |

| Structure (SMILES) | activity change, negative = cytotoxicity | Potency | outcome |
| --- | --- | --- | --- |
| COC1CCN(C(=O)c2cnc3c(c2)N([S+](=O)([O-])c2cccnc2)CCC3)CC1 | – | inconclusive: 79.4 µM [inhibitor, partial curve] | – |
| COc1cccc([S+](=O)([O-])N2CCC3(COc4ccccc4C(=O)N3)C2)c1 (stereo not drawn) | – | inconclusive: 50.1 µM [inhibitor, partial curve, poor fit] | – |
| O=C(c1cccc(Cl)c1)N1CCN(C(=O)c2nc3cccnc3n(Cc3ccccc3)c2=O)CC1 | – | inconclusive: 50.1 µM [inhibitor, partial curve, poor fit] | – |
| Fc1ccc(-c2noc([C@@H]3Cc4nc[nH]c4CN3Cc3cccs3)n2)cc1Cl | – | active: 50.1 µM | – |
| Cn1c2c(c3cc(F)ccc31)CN(C(=O)Nc1cccc(Cl)c1)CC2 | – | active: 20 µM | – |
| COc1ccc(Cn2c3c(c(=O)n2Cc2ccccc2)CCN(C(=O)CCc2cccnc2)C3)cc1 | – | active: 6.31 µM | – |
| COc1ccc2[nH]c(C[C@@H]3C[C@@H](C(C)C)[C@H](CNC4CCN(C(C)=O)CC4)C=C3C)nc2n1 | – | inconclusive: 89.1 µM [inhibitor, single point] | – |
| CCCCc1cc(C[C@@H]2C[C@H](NC(=O)C3CC3)C2(C)C)no1 | inactive: -26.5% [at 138 µM] | – | – |
| CCN(C)C(=O)CCc1c(C)nn(-c2cccc(C)c2)c1Oc1ccccc1 | – | active: 35.5 µM | – |
| CCOc1cc(C)c(CN2CCCC(O)(CN(C)C)C2)cc1C(C)C (stereo not drawn) | – | active: 39.8 µM | – |
| COc1ccc(-c2nc(C(C)C)nc3c2CCN(C(=O)c2ccccc2F)CC3)cc1 | inactive: -21.7% | – | – |
| O=C(CNC(=O)c1ccc(-c2cccc(C(F)(F)F)c2)cc1)NCCCc1ccccc1 | inactive: -11.6% | – | – |
| Cn1cccc1CN[C@H]1[C@H](O)[C@@H](N2CCCC2)[C@@H]2OC[C@H]1O2 | – | inconclusive: 100 µM [inhibitor, partial curve, poor fit] | – |
| CCN1CCC(CCNC(=O)C2CCCN(S(C)(=O)=O)CCC(=O)NCC2)CC1 (stereo not drawn) | inactive: 3.36% | – | – |
| CC(C)(C)C1CN(Cc2cccs2)C(=O)c2cccnc2O1 (stereo not drawn) | inactive: -33.8% [at 46.1 µM] | – | – |
| CS(=O)(=O)N1CCCC1c1noc(CCC(=O)N2CCCCCC2)n1 (stereo not drawn) | inactive: -12.1% | – | – |
| COc1ccc(C2=NOC3(CCN(Cc4ccc(N(C)C)cc4)C3)C2)cc1 (stereo not drawn) | – | inconclusive: 50.1 µM [inhibitor, partial curve, poor fit] | – |
| O=C(O)c1ccc(-c2nnc3ccc(NC(=O)C4CCC4)cn23)cc1 | inactive: -20.8% | – | – |
| COc1ccc(NC(=O)N2CC(c3nnc(-c4ccncc4)o3)C3(CCOCC3)C2)cc1 (stereo not drawn) | – | inconclusive: 79.4 µM [inhibitor, partial curve, poor fit] | – |
| COc1ccc(C(=O)N[C@H]2COC[C@H]2Cc2cc(C)no2)c(OC)n1 | inactive: 3.93% | – | – |
| C=CCNC(=O)c1cnn2c1CN(C(=O)c1ccccc1)CC2 | – | inconclusive: 79.4 µM [inhibitor, partial curve] | – |
| CC(=O)N1CCC(COc2ccc3c(cnn3CC[S+](C)(=O)[O-])c2)CC1 | – | inconclusive: 79.4 µM [inhibitor, partial curve] | – |
| Clc1ccc(C2Cn3nnc(-c4nc(-c5ccccn5)no4)c3CO2)cc1 (stereo not drawn) | inactive: -30.3% | – | – |

| Structure (SMILES) | activity change, negative = cytotoxicity | Potency | outcome |
| --- | --- | --- | --- |
| O=C(NCc1cccc(Cl)c1)C1CCN(c2nccc(Nc3ccccc3Cl)n2)CC1 | inactive: -14.3% | – | – |
| CC1(C)[C@H](Cc2cc(COc3ccccc3)on2)C[C@@H]1NC(=O)NCc1ccccc1 | – | inconclusive: 63.1 µM [inhibitor, full curve] | – |
| COc1cccc(CC(=O)Nc2ccc3ncnc(N4CCCC4)c3c2)c1 | – | inconclusive: 44.7 µM [inhibitor, partial curve, poor fit] | – |
| COc1ccc(O[C@H]2COCCN(Cc3cccc(OC)c3)C2)cc1 | inactive: -8.62% [at 138 µM] | – | – |
| CCc1ccc(S(=O)(=O)N2CCN(C3CCN(CCC(C)C)C3=O)CC2)cc1 (stereo not drawn) | – | inconclusive: 39.8 µM [inhibitor, partial curve, poor fit] | – |
| O=C(Nc1ccc(Cl)cc1)N1CCC(c2nn(-c3ccccn3)c(=O)[nH]2)CC1 | inactive: -17.8% | – | – |
| CN(C)C(=O)C1CCCN(Cc2cccc(-c3cccs3)c2)C1 (stereo not drawn) | – | inconclusive: 89.1 µM [inhibitor, single point] | – |
| O=C(NCCc1ccc(Cl)cc1)C1CCc2nnc(C3CCN(C(=O)c4ccc(Cl)cc4Cl)CC3)n21 (stereo not drawn) | – | inconclusive: 70.8 µM [inhibitor, single point] | – |
| Cn1cccc1C(=O)NC1CCCN(c2cc(-c3ccc(Cl)cc3)[nH]n2)C1 (stereo not drawn) | – | active: 39.8 µM | – |
| CN1CC(=O)N(C2CCC2)Cc2c(NCc3ccccc3)ncnc21 | – | inconclusive: 44.7 µM [inhibitor, partial curve, poor fit] | – |
| COc1ccc(NC(=O)Cn2c(-c3ccc(F)cc3)nc(C)c(CCO)c2=O)cc1Cl | – | inconclusive: 44.7 µM [inhibitor, partial curve, poor fit] | – |
| Cc1ccc(NC(=O)C2CCc3ncc(-c4ccsc4)n3C2)cc1C (stereo not drawn) | – | inconclusive: 50.1 µM [inhibitor, partial curve, poor fit] | – |
| O=C(NCC(=O)N1CCC(Cc2ccccc2)CC1)c1ccc(-c2cccc(C(F)(F)F)c2)cc1 | – | inconclusive: 12.6 µM [inhibitor, full curve] | – |
| Cc1ccc(Cn2c(C3CCN(C(=O)COc4cccc(C)c4)CC3)n[nH]c2=O)cc1 | inactive: -29.5% | – | – |
| Cn1cc(CC(=O)N2CCCc3ncc(C(=O)N4CCN(Cc5ccccc5)CC4)cc32)c2ccccc21 | – | inconclusive: 44.7 µM [inhibitor, partial curve, poor fit] | – |
| c1ccc(CN2CCC[C@H]2c2nc(-c3ccnc(N4CCOCC4)c3)no2)nc1 | – | active: 35.5 µM | – |
| COc1ccc(C(=O)NC(C(=O)NC(C)C)C2CCN(C(=O)c3ccccc3)CC2)cc1 (stereo not drawn) | inactive: -10.6% | – | – |
| COCC(=O)N[C@H]1C[C@H]2C(=O)NC[C@@H](CCC(=O)NCc3cccnc3)N2C1 | inactive: -5.65% [at 174 µM] | – | – |
| Cc1cc(C)cc(-c2ccc(C(=O)NCCCn3ccnc3C(C)C)cn2)c1 | – | inconclusive: 79.4 µM [inhibitor, partial curve, poor fit] | – |
| COc1ccc(CC(=O)N2CCN(C(=O)c3cccc(-c4ccccc4OC)c3)CC2)cc1 | – | inconclusive: 50.1 µM [inhibitor, partial curve, poor fit] | – |
| Cn1c(C(=O)NCCCc2nnc(N)s2)cc(=O)n(C)c1=O | inactive: -23.1% | – | – |
| CN(C)C(=O)c1n[nH]c2c1CN(S(=O)(=O)c1ccccc1)CC2 | inactive: -9.61% | – | – |
